Laboratory results taken from patent publication US20180344844A1 (SCHOLAR ROCK, published 2018).

Assays:
proGDF8 (mouse) = proGDF8 (mouse) (mouse, UniProt O08689 25-376); assay: cell-based or functional assay
proGDF11 (human) [1] = molecular target: T1, proGDF11 (human) (human, UniProt O95390 25-407); assay: ForteBio BLI; biotinylated proGDF11 on streptavidin tip, 30 µg/mL antibody, response after 5 minutes of association relative to proGDF8
T1 construct: domain: proGDF11 (prodomain plus growth factor domain)

Mature GDF11 = molecular target: T2, Mature GDF11 (UniProt O95390 299-407, limits assumed); assay: ForteBio Octet BLI; antigen on biosensor, antibody in solution
T2 construct: mature; also called GDF11 mature growth factor

BMP 9 = molecular target: T3, BMP 9 (UniProt Q9UK05 320-429, limits assumed); assay: as above
T3 construct: mature
T3 sequence (looked up): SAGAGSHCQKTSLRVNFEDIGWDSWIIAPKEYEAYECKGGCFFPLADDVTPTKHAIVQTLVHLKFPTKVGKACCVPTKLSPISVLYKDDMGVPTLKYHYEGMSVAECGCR

Mature TGFB1 = molecular target: T4, Mature TGFB1 (UniProt P01137 partial chain); assay: as above
T4 construct: mature; also called mature TGFβ1

Mature Activin A = molecular target: T5, Mature Activin A (UniProt P08476 311-426); assay: as above
T5 construct: mature; also called Activin A growth factor
T5 sequence (looked up): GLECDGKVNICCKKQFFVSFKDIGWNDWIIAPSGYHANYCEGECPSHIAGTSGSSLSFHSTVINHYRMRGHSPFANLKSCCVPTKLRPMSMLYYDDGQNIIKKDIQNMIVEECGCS

Pro Activin A = molecular target: T6, Pro Activin A (human, UniProt P08476 21-426); assay: as above
T6 construct: domain: pro form (prodomain plus growth factor domain)
T6 sequence (looked up): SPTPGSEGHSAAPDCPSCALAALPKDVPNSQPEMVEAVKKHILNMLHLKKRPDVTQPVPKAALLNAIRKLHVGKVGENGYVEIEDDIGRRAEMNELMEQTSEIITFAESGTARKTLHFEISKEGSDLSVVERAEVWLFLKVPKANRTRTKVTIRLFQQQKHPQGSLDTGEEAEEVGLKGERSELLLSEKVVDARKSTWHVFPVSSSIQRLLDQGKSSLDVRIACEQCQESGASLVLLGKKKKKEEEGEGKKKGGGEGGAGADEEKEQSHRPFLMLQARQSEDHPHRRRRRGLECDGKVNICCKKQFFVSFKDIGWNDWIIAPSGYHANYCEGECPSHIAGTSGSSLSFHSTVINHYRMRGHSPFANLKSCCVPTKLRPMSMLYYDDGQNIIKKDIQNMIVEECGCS

BMP10 = molecular target: T7, BMP10 (UniProt O95393 317-424, limits assumed); assay: as above
T7 construct: mature
T7 sequence (looked up): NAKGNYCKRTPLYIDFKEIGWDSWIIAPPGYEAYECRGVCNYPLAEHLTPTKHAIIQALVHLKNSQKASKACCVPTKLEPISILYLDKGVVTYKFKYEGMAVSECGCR

proGDF11 (human) [2] = molecular target: T1, proGDF11 (human); assay: as above

- Activity Assay - 293T cells EC50 (proGDF8 (mouse)): 714 nM
- GDF11 response, expressed as a percentage of GDF8 response (proGDF11 (human) [1]): 0.81%
- binding result (Mature GDF11): no binding (tested: 50 µg/mL)
- binding result (BMP 9): no binding (tested: 50 µg/mL)
- binding result (Mature TGFB1): no binding (tested: 50 µg/mL)
- binding result (Mature Activin A): no binding (tested: 50 µg/mL)
- binding result (Pro Activin A): no binding (tested: 50 µg/mL)
- binding result (BMP10): no binding (tested: 50 µg/mL)
- binding result (proGDF11 (human) [2]): no binding (tested: 50 µg/mL)
B1: Ab2 (germlined Ab1), IgG4 (S228P), lambda (antibody)
heavy: QVQLVESGGGVVQPGRSLRLSCAASGFTFSSYGMHWVRQAPGKGLEWVAVISYDGSNKYYADSVKGRFTISRDNSKNTLYLQMNSLRAEDTAVYYCARDLLVRFLEWSHYYGMDVWGQGTTVTVSSASTKGPSVFPLAPCSRSTSESTAALGCLVKDYFPEPVTVSWNSGALTSGVHTFPAVLQSSGLYSLSSVVTVPSSSLGTKTYTCNVDHKPSNTKVDKRV[gap - human IgG4 Fc with S228P (EU numbers)]
light: QSVLTQPPSASGTPGQRVTISCSGSSSNIGSNTVHWYQQLPGTAPKLLIYSDNQRPSGVPDRFSGSKSGTSASLAISGLQSEDEADYYCAAWDDSLNGVFGGGTKLTVLGQPKAAPSVTLFPPSSEELQANKATLVCLISDFYPGAVTVAWKADSSPVKAGVETTTPSKQSNNKYAASSYLSLTPEQWKSHRSYSCQVTHEGSTVEKTVAPTECS
